± gives the standard deviation of the averaged measurements. This is one part of the list.

The assay deals with PfAP2-LT AP2 domain (GST-tagged). The assay can be described thus: gcPBM binding intensity (ln(normalized median fluorescence intensity)); higher = stronger DNA binding. The procedure, abridged: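 Binding intensity values are the highest Masliner-normalised natural-log median intensity among replicate spots of either probe orientation. The binding step lasted 1 h in 1× PBS with 1% milk, 0.2 mg/ml BSA, 0.5% salmon testes DNA and 0.03% Triton X-100, using GST-tagged P. falciparum DNA-binding domains expressed in E. coli on an Agilent 4 × 180k array of primer-extended double-stranded 36-bp intergenic genomic probes plus negative controls. Alexa488 anti-GST antibody and a 488 nm scan detected bound protein.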
For “AAGGATTACAAAAAAAGTACAAATGGATTTTTTCCC [XGTACX_site8905]”, the “gcPBM binding intensity (ln)” value is 8.6 ± 0.57.
On to “CTTACAAATAAACAACGTACTTATTCGAATTATGCT [XGTACX_site2431]”, for which the “gcPBM binding intensity (ln)” value is 8.8 ± 0.36.
The same measure for “AAAATTTTTTAACACTGTACTTGTAATATTAAAACT [XGTACX_site8369]”: 8.53 ± 0.42; for “GTTTTAAAATTAAATATTATGGCATAATTCAAGAAA [GTGCAC_negctrl_site721]”: 8.28 ± 0.4; for “AAATGCGCCATGTGTACACATATATATATATATATA [CACACA_site4649]”: 10.1 ± 0.18.
Regarding “TACATATATAAAAATTGTACACTTCATAAGAAAAAA [XGTACX_site4347]”, the “gcPBM binding intensity (ln)” value came out at 8.65 ± 0.5.
Then “TTAAATAAGTTCTTCACACATATATATATATATATA [CACACA_site4742]”, with 9.51 ± 0.24.
On to “GGAACATATGAACTCACACACATTTTCACTTAAATA [CACACA_site3684]”, for which the “gcPBM binding intensity (ln)” value was 9.3 ± 0.52.
The same measure for “TTTATACAATTAGACACACACAAAAAGTATAAATAT [CACACA_site6637]”: 9.25 ± 0.33; for “ATATCACATTCCACGGTACACACTAATAGAAAAATC [CACACA_site9204]”: 9.09 ± 0.46; for “TAAAATGATAAATGAATGTGATCATTTTATAAAATA [CACACA_negctrl_site674]”: 8.61 ± 0.42.
The same measure for “AATATTTATAAATTTACACACACACCGGTGAACATA [CACACA_site8579]”: 9.45 ± 0.22; for “ATATATCACATGAACATTAAAAAAAAAAAAGAGGGG [TGCATGCA_negctrl_site187]”: 8.89 ± 0.26; for “AAAATATATACAAGCAAACACACGTAATATATATTA [CACACA_site2152]”: 9.12 ± 0.33.
Then “AGGTAGTTCTGTATCACACACATATAAATATAAATA [CACACA_site7110]”, with 9.12 ± 0.57; and “GCATAAAATATGATCGCACACTGTTTAAAATACTTA [CACACA_site828]”, with 8.89 ± 0.48; and “ATATTACTAATTAATGGTACACGTTATAATAAACTA [XGTACX_site7051]”, with 8.63 ± 0.33.
Turning to “ATACCTTCTTCATTCACACATATACGTAAAATGTTC [CACACA_site5657]”, the “gcPBM binding intensity (ln)” value worked out at 9.02 ± 0.47.
As for TTTAAACTAGAACAAGTGCAGATATGTATAATAATA, the “gcPBM binding intensity (ln)” value was determined as 8.77 ± 0.42.
On to “AAGAAAAGATATATATATAAATATATATATATATAT [TGCATGCA_negctrl_site353]”, for which the “gcPBM binding intensity (ln)” value was found to be 9.57 ± 0.36.
Then “ATTTATTTTTATCAAGCATGCATAAAAAATAAATTA [TGCATGCA_site440]”, with 8.25 ± 0.4; and “TATTTTTAGAAAATAAAGAAGGAGAATTGAAAATAT [CACACA_negctrl_site361]”, with 8.41 ± 0.48; and “TTTTATTTTGGAACGTGTACATATAATTATTTATTG [XGTACX_site8094]”, with 8.74 ± 0.47.
In the case of “GTTCCATATATTACATGTACATATTTTTACATTTAA [XGTACX_site660]”, the “gcPBM binding intensity (ln)” value was found to be 9.12 ± 0.36.
For the sequence “TGATTAATAGCAGGTAGTACTATAATAATATAAATA [XGTACX_site2776]”, the “gcPBM binding intensity (ln)” value is 8.69 ± 0.52.
“AGAAGAAAAGAAATATGTACATAAACGTCTGAACTA [XGTACX_site1699]”: the “gcPBM binding intensity (ln)” value turned out to be 9.05 ± 0.54.
As to “ATAACAAATATGATAGCATGCTACATATTACAACTT [TGCATGCA_site524]”, the “gcPBM binding intensity (ln)” value was 9 ± 0.44.
Then “TTTAAAAAAAAAAAAAAAAATTCTACATGTAATTTA [CACACA_negctrl_site1205]”, with 7.96 ± 0.41.
For “TGACATAAATTTAATACACACACAAAGAAAAAAAAA [CACACA_site9354]”, the “gcPBM binding intensity (ln)” value worked out at 9.31 ± 0.45.
As to “ATACATATATATATATGTACACACATTAATAAAAAA [XGTACX_site6874]”, the “gcPBM binding intensity (ln)” value was 9.05 ± 0.47.
For “TATATTTTAGTTAATGCATGTGTGCATCCATTTAAA [TGCATGCA_site887]”, the “gcPBM binding intensity (ln)” value stood at 8.76 ± 0.34.
The same measure for “TACCAAAATAGACACACACACAAAATATGTAAATAT [CACACA_site6963]”: 9.92 ± 0.45; for “TATAAATAAATTTATACACACACACCCATATATATA [CACACA_site8183]”: 9.73 ± 0.17; for “ATAAAGCCATACAATACACACATTTTACATGGCTGT [CACACA_site5756]”: 9.26 ± 0.42.
Consider “TTTGTTATATTTAATACACACATATTATAAACCCAT [CACACA_site3716]”, for which the “gcPBM binding intensity (ln)” value was 8.91 ± 0.44.
With “TAAAATTAGGAAATTGCACACAAAAAAAAACATATT [CACACA_site9349]”, the “gcPBM binding intensity (ln)” value stood at 9.1 ± 0.4.
As for “AAAAAAAAAAGACACACACACAAATACAAATGGTAA [CACACA_site6906]”, the “gcPBM binding intensity (ln)” value was 9.65 ± 0.38.
For “TAAAACATGTTTTTATATATTATTATTATATTTATA [XGTACX_negctrl_site8]”, the “gcPBM binding intensity (ln)” value amounted to 8.45 ± 0.48.
In the case of “ACCCAATTTTTTAGTACACACATATAAATATATAAA [CACACA_site4944]”, the “gcPBM binding intensity (ln)” value is 8.87 ± 0.46.
Then “AACACATACAGACACACACACAAAAAAAAAAAAAAA [CACACA_site6322]”, with 9.58 ± 0.78; and “ACTACATAAAATGACACACACAAACTTTAAAATTTA [CACACA_site3474]”, with 9.26 ± 0.38.
The same measure for “CACCTGCACGATTGCACACAAATATGTTTTGAAGAT [CACACA_site2103]”: 9.21 ± 0.45; for “TATATTTGGAAACACACACACAAAAAAAAAAAAAAA [CACACA_site2474]”: 9.36 ± 0.42; for “ATATTTTCTAATCAATGTACTTATTCTACACATTAA [XGTACX_site5774]”: 8.72 ± 0.46.

The values are drawn from the supplement of paper PMC11417369.
